# Results taken from PubChem BioAssay AID1745853 (National Center for Advancing Translational Sciences (NCATS), 2022).
# “And” between values parts separate entries of the source, which are not always exact repeats. Equal values may be shown once. This is one part of the list. Shown are side measurements of this screen, not its main read-out; they come without a call.
# Tests used:
# Assay in all cases: Primary Screen for Target Class Profiling of Small Molecule Inhibitors of Methyltransferases
# [1] = molecular target: Glycine N-methyltransferase (Homo sapiens) (UniProt Q14749); conditions: purified enzyme, MTase-Glo SAH luminescence; measured here: GNMT inhibition; at 40 µM; stronger effect = lower value
# Outline: (§1)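 Each enzyme was assayed with SAM and its substrate. SAH formation detected by MTase-Glo luminescence; single-point 40 uM screen[…].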
# [2] = molecular target: Guanidinoacetate N-methyltransferase (Homo sapiens) (UniProt Q14353); conditions: purified enzyme, MTase-Glo SAH luminescence; measured here: GAMT inhibition; at 40 µM; stronger effect = lower value
# Outline: as §1
# [3] = molecular target: Histamine N-methyltransferase (Homo sapiens) (UniProt P50135); conditions: purified enzyme, MTase-Glo SAH luminescence; measured here: HNMT inhibition; at 40 µM; stronger effect = lower value
# Outline: as §1
# [4] = molecular target: Nicotinamide N-methyltransferase (Homo sapiens) (UniProt P40261); conditions: purified enzyme, MTase-Glo SAH luminescence; measured here: NNMT inhibition; at 40 µM; stronger effect = lower value
# Outline: as §1
# [5] = molecular target: Phenylethanolamine N-methyltransferase (Homo sapiens) (UniProt P11086); conditions: purified enzyme, MTase-Glo SAH luminescence; measured here: PNMT inhibition; at 40 µM; stronger effect = lower value
# Outline: as §1
# % is scaled to controls: 0 for no effect and ±100 for the full control effect.
Structure (SMILES),"activity change, negative = inhibition [1]","activity change, negative = inhibition [2]","activity change, negative = inhibition [3]","activity change, negative = inhibition [4]","activity change, negative = inhibition [5]"
O=C1OCC2(CCN(Cc3c[nH]c4ccccc34)C2)N1Cc1ccccc1 (configuration not stated),-8.71%,-6.12%,-7.4%,-15.9%,-14.2%
O=C(NCc1ccc(F)cc1)c1ccc2c(=O)nc3c(-c4ccccc4F)n[nH]n3c2c1,-21.1%,4.83%,1.15%,1.58%,-0.288%
COc1cccc(CN2CCC(C(=O)N3CCCCCCNC(=O)CC3)CC2)c1,-3.81%,-4.56%,-5.8%,-12%,-4.48%
COC(=O)C1=CO[C@@H](O[C@@H]2O[C@H](CO)[C@@H](O)[C@H](O)[C@H]2O)C2C1CC(O)C2C (some centres not stated),3.34%,,4.96%,,
CCC(C)NC(=O)c1ccc2c(=O)n(C)c3nnc(SCC(=O)NC4CCCC4)n3c2c1 (configuration not stated),5.42%,0%,7.31%,7.71%,5.05%
CC(C)n1cnc2c(Nc3cccc(Cl)c3)nc(NCCO)nc21,-16.5%,-12.4%,-12.6%,-28.4%,-11.6%
CC1(C(=O)NC2CCCCCC2)Cn2c(cc3sccc32)C(=O)N1Cc1ccco1 (configuration not stated),-0.413%,2.85%,-3.99%,-3.94%,-6.03%
COCCNC(=O)c1cc(-c2ccc(Cl)nc2)nc2c1cnn2C,-6.74%,-0.776%,-3.16%,-10.6%,-3.29%
CCCn1c(=O)c2ccccc2n2c(SCC(=O)Nc3ccccc3OC)nnc12,-8.47%,3.07%,4.71%,-7.35%,-0.801%
CC(C)Cn1c(=O)c2ccccc2n2c(CCC(=O)NCc3cccnc3)nnc12,-3.18%,0%,-7.45%,-2.76%,-9.67%
CC(C)Cn1c(=O)c2ccc(C(=O)NC(C)C)cc2n2c(SCC(=O)Nc3ccccc3F)nnc12,-4.25%,-1.53%,-1.24%,-8%,-4.61%
Cc1nn(-c2ccccc2)c2c1C(C(C)C)N(C1CCCN(C(=O)c3ccccc3F)C1)C2=O (configuration not stated),-1.27%,-0.37%,-3.04%,-5.24%,1%
CCOCCn1c(=O)n(Cc2cc(OC)ccn2)c2cc(C(=O)O)cnc21,-3.46%,0.363%,0.252%,-4.6%,-4.44%
CC(C)CCN1C(=O)c2ccccc2CC1(C)C(=O)NC1CCCCC1 (configuration not stated),1.42%,0%,6.74%,5.49%,-0.046%
COc1ccccc1CCNC(=O)CCn1ccc2cc(S(=O)(=O)N3CCC(C)CC3)ccc21,0.415%,0%,1.09%,-7.25%,0.772%
CCC(C)NC(=O)c1ccc2c(=O)n(C(C)C)c3nn(Cc4ccccc4F)c(=O)n3c2c1 (configuration not stated),-6.23%,-0.855%,-0.122%,-10.2%,-6.04%
COc1ccc(CN2C(=O)COC[C@H]2C(=O)N2CCc3ccccc3C2)c(OC)c1,-9.68%,-10.1%,-5.3%,-11.4%,-9.29%
COc1ccc(Cl)cc1C(=O)NCCc1ccc(S(=O)(=O)NC(=O)NC2CCCCC2)cc1,-4.22% and -5.05%,-4.84% and 15.7%,10.5% and 8.5%,-25% and -2.14%,-3.2% and 7.5%
O=C1[C@H]2CN(Cc3ccncc3)C[C@H]2C(=O)N1Cc1ccc2c(c1)OCO2,-11.1%,-8.28%,-2.85%,-13.3%,-13%
CC(C)n1c(=O)c2ccc(C(=O)NC3CCCC3)cc2n2c(=O)n(Cc3ccccc3F)nc12,-0.858%,4.9%,8.07%,-2.43%,1.88%

Structure (SMILES),"activity change, negative = inhibition [1]","activity change, negative = inhibition [2]","activity change, negative = inhibition [3]","activity change, negative = inhibition [4]","activity change, negative = inhibition [5]"
CC(=O)CCC1=C(C)C(O[C@@H]2O[C@H](CO)[C@@H](O)[C@H](O)[C@H]2O)C(O)CC1(C)C (some centres not stated),0.48%,7.68%,12.1%,-3.43%,6.17%
CC[N+]1(C/C2=C/CCCCCC2)CCC(NC(=O)C2c3cc(Cl)ccc3Oc3ccc(Cl)cc32)CC1 (configuration not stated),-12.8%,3.82%,-55.2%,-28.4%,-3.01%
COc1ccc(CNC(=O)c2cc3n(n2)CC(C)(C(=O)NCCC(C)C)N(C)C3=O)cc1OC (configuration not stated),9.64%,1.06%,8.22%,12.4%,5.11%
O=C(O)c1ccc2c(c1)N(C(=O)c1ccc(F)cc1)CC2,-1.44%,0.076%,1.61%,-1.92%,0.634%
C[C@H]1[C@@H]2[C@@H](O)C([C@H](C)C(=O)NCc3cccnc3)CC[C@@]2(C)CC[C@@H]1NC(=O)c1ccccn1 (some centres not stated),-5.92%,-4.1%,-2.93%,6.13%,12%
C[C@@H]1CN(C[C@@H]2CN(C(=O)c3ccsc3)C[C@@H]2CO)C[C@H](C)O1,-0.895%,0.304%,-0.523%,0.252%,-4.5%
CC(C)(C)CC(=O)N[C@H]1CO[C@H]2[C@@H]1OC[C@H]2OCC(N)=O,0.737%,-2.15%,3.02%,-1.31%,4.67%
CCN(CC)CCCCCCCCOC(=O)c1cc(OC)c(OC)c(OC)c1,-1.79%,8.6%,-37.1%,-8.39%,-3.52%
Cc1ccc(CNC(=O)Cn2nc3n(CCC(C)C)c(=O)c4ccc(C(=O)NC(C)C)cc4n3c2=O)cc1,5.35%,0%,3.96%,7.39%,3.91%
Cc1cn2nnc(C(=O)NC3CCC(C)CC3)c2c(=O)[nH]1 (configuration not stated),-8.24%,-9.87%,-13.9%,-18%,-8.88%
COc1ccc2cc3n(c2c1)CC(C)(C(=O)NC1CCCC1)N(c1ccc(C)cc1)C3=O (configuration not stated),0.415%,4.28%,5.81%,3.58%,-1.72%
Cc1ccc(CCNC(=O)c2cc3n(n2)CC(C)(C(=O)NC2CCCCCC2)N(C)C3=O)cc1 (configuration not stated),-0.571%,4.03%,-1.77%,3.24%,2%
c1ccc(-c2ccc(CNc3nc(-c4ccccn4)nnc3-c3ccccc3)cc2)cc1,1.28%,0.939%,3.07%,-20.6%,-6.85%
CCCN1CCC2(CCN([S+](=O)([O-])c3cccs3)CC2)Oc2ccccc21,-7.64%,-6.52%,-8.46%,-18.6%,-10.4%
COc1ccc2c(c1)CN(C(=O)CCN1CCC(Cc3ccccc3)CC1)CCS2,-3.93%,2.94%,-9.73%,-21.7%,-3.8%
CCC(C)NC(=O)c1ccc2c(=O)n(CC(C)C)c3nn(CC(=O)Nc4ccc(C)cc4C)c(=O)n3c2c1 (configuration not stated),7.41%,0.081%,14%,8.15%,7.02%
C[C@]1(CO)C2CC[C@H]3OC(=O)C[C@H]3[C@]2(C)CC[C@H]1OC(=O)Nc1ccccc1 (some centres not stated),-4.96%,-1.51%,0.395%,0.974%,0.11%
Cn1cnc(C(=O)N2CC(F)(F)C[C@H]2c2nc(C3CC3)no2)c1,-3.83%,0.271%,-2.21%,-9.52%,-13.4%
COC(=O)c1cc2n(n1)CC(C)(C(=O)NC1CCCC1)N(c1ccc(C)c(C)c1)C2=O (configuration not stated),-0.159%,8.82%,6.71%,-2.79%,-0.158%
Cc1cc2[nH]c(=O)[nH]c2cc1S(=O)(=O)NCc1ccccc1,-3.96%,4.49%,1.5%,-1.91%,-6.44%

Structure (SMILES),"activity change, negative = inhibition [1]","activity change, negative = inhibition [2]","activity change, negative = inhibition [3]","activity change, negative = inhibition [4]","activity change, negative = inhibition [5]"
CC1CCC2(NC1)OC1C(=O)C3C4CCC5CC(O[C@@H]6O[C@H](CO)[C@@H](O)[C@H](O)[C@H]6O[C@@H]6O[C@@H](C)[C@H](O)[C@@H](O)[C@H]6O)CCC5(C)C4CCC3(C)C1C2C (some centres not stated),0%,-10.9%,-3.94%,-21.8%,-1.95%
CCCN(CC1CCOC1)C(=O)Nc1ccc(Cl)cc1 (configuration not stated),-0.118%,2.37%,0.996%,-2.73%,-1.3%
CNC(=O)c1cc(-c2cnc(OC)nc2)cc2c1OCCN2Cc1cccnc1,-12.6%,-13.3%,-10.4%,-15.7%,-4.55%
C=CC(=O)N1CCN(C(=O)CNc2cc(-c3ccccc3Cl)c(Cl)cc2OC)CC1,-0.654%,3.98%,0.233%,-13.9%,2.5%
CC(C)c1c(NC(=O)Nc2ccc(Cl)cc2)c(=O)n(-c2ccccc2)n1C,-0.456%,-5.86%,0.823%,-19%,-4.24%
CN1C(=O)c2cc(C(=O)NCc3ccc4c(c3)OCO4)nn2CC1(C)C(=O)NC1CCCC1 (configuration not stated),3.65%,0%,1.41%,3.85%,0.104%
COCCNC(=O)CCc1nnc2n(Cc3ccccc3Cl)c(=O)c3ccccc3n12,-8.28%,2.93%,0.254%,2.3%,-0.09%
CCOc1ccc(CN2C(=O)c3ccc(-c4ccco4)n3CC2(C)C(=O)NC2CCC(C)CC2)cc1 (configuration not stated),-5.87%,0%,2.25%,-12.6%,-0.219%
COCCCNC(=O)C(C)(C)Oc1nn(Cc2cccnc2)c2ccc(COC)cc12,-0.31%,-0.433%,2.3%,0.758%,2.31%
CC1c2cccn2CCN1C(=O)Nc1cccc(Cl)c1 (configuration not stated),-9.67%,2.39%,-7.88%,-17.5%,-8.65%
COCCn1c(C(=O)OC)c(NC(=O)CC(C)C)c2cc(NC(C)CCn3cccn3)cnc21 (configuration not stated),-1.39%,-2.58%,-0.691%,-4.93%,-2.02%
CCCn1c(=O)c2cc(F)ccc2n2c(SCc3ccc(C)cc3)nnc12,-4.76%,0%,6.03%,-6.86%,4.3%
CCCn1c(=O)c2ccc(C(=O)NCC(C)C)cc2n2c(=O)n(CC(=O)NC(C)(C)C)nc12,0.298%,3.58%,-1.03%,0.829%,1.4%
O=C(c1cccs1)N1CCC(N(C(=O)NCCc2ccccc2)C2CCOCC2)CC1,-1.83%,-1.14%,-10.2%,-5.9%,-3.69%
CCCCN(CC)c1nc(C)nc2c1c(C)cn2-c1c(C)cc(C)cc1C,3.13% and -1.45%,12.2% and -9.4%,10.9% and 13%,-3.9% and -21.6%,1.78% and -4.5%
CC(=O)N1CCC(N2C[C@@H]3C[C@H](C2)c2ccc(-c4ccccc4CN(C)C)c(=O)n2C3)CC1,-2.86%,-5.65%,-22.3%,-5.88%,-1.93%
CCOC(=O)c1cc2n(n1)CC(C)(C(=O)NC1CCC(C)CC1)N(c1cccc(OC)c1)C2=O (configuration not stated),3.54%,0%,3.83%,5.75%,0.328%
Cn1cccc1C(=O)NC1CCN(C(=O)N2CC3CC(C2)[C@H]2CCCC(=O)N2C3)CC1 (some centres not stated),-4.62%,-3.87%,-0.743%,-5.91%,14.1%
CCC(C)NC(=O)c1ccc2c(=O)n(C)c3nn(CC(=O)c4ccc(C)cc4C)c(=O)n3c2c1 (configuration not stated),3.36%,0.813%,6.42%,-2.31%,2.04%
